These are yes or no findings as the source states them, for the method shown. For part of these data: Binding seen in cells or lysates may run through a third protein. Some binding calls cover weakened binding; strength is not graded here.
Assays:
[1] = molecular target: PCBP2, endogenous in THP-1 (human (endogenous in THP-1)) (UniProt Q15366); assay: co-IP; endogenous; THP-1 cells with or without HT-DNA (2 μg/ml); PCBP2 antibody or control IgG, protein A/G beads; immunoblot
[2] = molecular target: PCBP2 full-length (FL), transfected in HEK293T (tag not told) (human) (UniProt Q15366); assay: co-IP
GST-PCBP2 (human) = GST-PCBP2 (human) (UniProt Q15366); assay: pull-down; purified cGAS-His incubated with GST-PCBP2 or GST-GFP, pulled down with glutathione-Sepharose beads; Western blot; both purified
[3] = molecular target: Flag-tagged PCBP2 (human) (UniProt Q15366); assay: co-IP

The chains behind the UniProt entries cited, without tags or fusion partners.
UniProt Q15366: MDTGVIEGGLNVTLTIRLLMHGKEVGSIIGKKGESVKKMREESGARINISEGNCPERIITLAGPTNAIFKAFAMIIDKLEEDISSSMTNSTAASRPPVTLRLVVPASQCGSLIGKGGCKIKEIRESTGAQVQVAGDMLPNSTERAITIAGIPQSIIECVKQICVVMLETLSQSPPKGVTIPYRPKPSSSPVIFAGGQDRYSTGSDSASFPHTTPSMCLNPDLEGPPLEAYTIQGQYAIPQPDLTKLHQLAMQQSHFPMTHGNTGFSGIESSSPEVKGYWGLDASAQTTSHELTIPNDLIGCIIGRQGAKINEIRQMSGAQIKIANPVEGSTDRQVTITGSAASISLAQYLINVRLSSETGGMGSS
UniProt Q86WV6: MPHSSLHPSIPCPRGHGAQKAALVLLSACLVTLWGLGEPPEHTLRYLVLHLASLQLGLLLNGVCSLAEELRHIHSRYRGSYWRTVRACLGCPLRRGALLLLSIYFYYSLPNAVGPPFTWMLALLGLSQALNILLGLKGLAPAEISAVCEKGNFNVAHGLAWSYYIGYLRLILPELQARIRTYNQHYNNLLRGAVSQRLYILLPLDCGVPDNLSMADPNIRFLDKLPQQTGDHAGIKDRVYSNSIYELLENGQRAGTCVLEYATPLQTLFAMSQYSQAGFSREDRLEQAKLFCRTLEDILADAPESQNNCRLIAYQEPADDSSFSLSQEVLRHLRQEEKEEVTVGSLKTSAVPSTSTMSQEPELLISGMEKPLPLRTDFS
UniProt Q8N884: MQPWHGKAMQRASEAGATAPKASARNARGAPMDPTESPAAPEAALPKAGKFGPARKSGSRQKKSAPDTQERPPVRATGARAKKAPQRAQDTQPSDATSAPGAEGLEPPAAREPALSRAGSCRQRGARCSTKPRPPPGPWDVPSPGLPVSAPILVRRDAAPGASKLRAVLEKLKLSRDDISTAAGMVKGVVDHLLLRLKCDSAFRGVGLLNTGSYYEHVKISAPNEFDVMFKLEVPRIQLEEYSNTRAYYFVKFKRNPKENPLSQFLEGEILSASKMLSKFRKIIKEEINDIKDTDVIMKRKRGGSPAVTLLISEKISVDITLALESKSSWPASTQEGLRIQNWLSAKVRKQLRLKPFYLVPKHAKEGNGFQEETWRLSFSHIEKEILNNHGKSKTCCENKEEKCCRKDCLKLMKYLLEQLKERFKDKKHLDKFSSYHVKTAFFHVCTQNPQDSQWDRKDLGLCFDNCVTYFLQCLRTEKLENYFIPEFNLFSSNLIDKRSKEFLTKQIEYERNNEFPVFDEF

binding [1]	binding [2]	Substance	also measured
no binding	–	STING, endogenous in THP-1 (from UniProt Q86WV6 1-379)	–
–	binds	cGAS, transfected in HEK293T (tag not told) (from UniProt Q8N884 1-522) (enzyme)	–
–	no binding	STING, transfected in HEK293T (from UniProt Q86WV6 1-379)	–
binds	–	cGAS, endogenous in THP-1 (from UniProt Q8N884 1-522) (enzyme)	–
–	–	cGAS-His (from UniProt Q8N884 1-522) (enzyme)	binding (GST-PCBP2 (human)): binds
–	–	Myc-tagged cGAS (from UniProt Q8N884 1-522) (enzyme)	binding [3]: binds
